# Data from the RNAGym collection of RNA variant scans (doi:10.7554/elife.90254).
# Read counts are not given, so values of variants with three or more changes are uncertain.
# B1: LINE1-full (parent)
# chain: UACGUAGGUGGUUUUCCCCUGAUAGUGCUAAGGGGGCCUGGAAGUUUGGACUGGGCAGAGCUCAACACAGCGUGGCAAAGUGGCUGUGGCUAGACUGCCUCUCUGGAUUCCUCGUCACUCAGCAGGGCAUCUCUGAGAGAAAUGCC
# Variants of: B1
# Test: self-cleavage, relative activity (ratio to wild type); higher = more cleavage; in vitro, sequencing; the parent is a self-cleaving ribozyme
row,Variant,self-cleavage
1,U46C U115A A121U A141G,1.54
2,G35A U45C U87C,0.06
3,G36A U47C A92U,0.65
4,U39G A43G U108C,0.32
5,U1A U15C U26C G36A C76U C113U,2.08
6,U14G C56U A136U A138U,0.2
7,U45G U81A U134G,1.83
8,G34U U45C U62C U115C,0
9,A50U U52C C56A A141G,0.04
10,U1C A24G A31U A65U,0.54
11,A42G U85C U119C,0
12,U14C A22U U87A U119C A136U,0.13
13,U14A U62C U112C,0.07
14,U26C U119A A124G,0.84
15,A42U U62C A64U,0.06
16,A107G A129U A141G U143C,0.84
17,U29A G53A A94U,0.17
18,U12C U13C A77U U109G A138G,0.4
19,U1C U47A G75A,0.34
20,U13A U81A A129G,2.19
21,U62C U73A A140G,0.01
22,G25C C38A U73A A78G A140G,0.3
23,A59G A67U A94G,0
24,A65G U87A A121G,0

row,Variant,self-cleavage
1,U20A G27U U73A A142G,1.84
2,A31U A67U U85A A92G U134C,0.14
3,G4A G54A U109C,0.14
4,G49A A65C U73A,0.03
5,G4A A22G A142G,0.48
6,A6G U20C G21C U45C U52A A141G,0.51
7,G32C A43G G114U A124G U130A G137C,2.3
8,A2C U26C A107G A124G U143C,0
9,U9A G74A U112A,1.34
10,U45A A57G A77G U81A C131U,0.54
11,A79G U119C U130A A138G C146G,2.04
12,U29C U45C C99A A140G,0.37
13,U1C U15C U26C,0.88
14,A79G U87C A107G U119C U134A,0
15,A22G U62C A94U U96C,0.09
16,U13A A67G G125U,0.41
17,A94G U109C C118U,0.11
18,C37A U46C A79G A92G U109C G139A,0
19,U14G U45A G105A,0.75
20,U9G U52C U109C A140G,0.68
21,U13C U81A U143C,1.21
22,G35A A43C U47A A59G,0.14
23,A136G A140G C145A,1.84
24,U46C U47A A59G,0.11

row,Variant,self-cleavage
1,U15A G32A G88C,0.05
2,G122A A140U U143C,1.33
3,U20C U62A A64G A78G,0.42
4,A31U U45C U62C G72U,0.1
5,U14C A50U C99U U104C,0.08
6,U13C U26C U87A G106U U115A,0.09
7,U9A C38U U87A U115C,0.09
8,U12C G32A A50G U96C A121U,0
9,A2G A79G U91A,0.84
10,U26C A30G A31U U130C,1.58
11,A22G U45C U62C,0
12,U26A A57G A77G U87A U102A A140G C146U,1.15
13,U12C U14C U15C A136G,1.02
14,U23C U39A G106A,2.56
15,U81A G89A U100C U130C U132A,0.01
16,U1C C3G U14C U130A,0.43
17,A42G A43G A92U U108C,1.02
18,C110A C131U A136U,1.56
19,U14G U45C A124G,0.51
20,U1C A79G U130A,1.29
21,U9C A24C U73A C116U,1.2
22,A65G U73A A78G U112C A142U,0
23,A57G U85C U130A,0
24,U62C A64U A138G,0.04

row,Variant,self-cleavage
1,U52A U112C A117U,1.43
2,U15G U20C U73C C128U,1.45
3,U13C A31G A65C C120U,0.1
4,A50U A57U A64G,0.11
5,U12C U20A A79G U115C A129U A140U,1.75
6,U13C U104A U130C A142G,1.48
7,U1A A50G A69G U143C,0
8,G4C U13C U62A U73A U143A,0.09
9,A24G U73A G80A U85C U96C U143C,0.07
10,G8U U14C U96C,0.16
11,U62A A65G A136U,0.08
12,U46C A94U A121G A138U,0.54
13,U9A C61A U96A U108C U115C C120U,0.02
14,U14A A69G A94G,0
15,U9G A43G A107C,0
16,C101U C123A A129G U130A,1.59
17,G49A U62C U81A,0.05
18,U20G G40A A77G,1.08
19,G8A U20C U39C,0.61
20,G36U A121G A140G,2.3
21,G4C G74U A92G,0.12
22,U115C A117G A129G,2.63
23,U15C A94G U96A A121U,0
24,G54U U96A A117U A136G A141G U143C,0.06

row,Variant,self-cleavage
1,U1C U9A U102C,0.71
2,U5A U46C U104G A138G,2.16
3,A30U U85A A142G,0.04
4,U39A U85C A136G A138G,0.37
5,G55A A121G A141G,0.22
6,A30G C95U U115A,0.14
7,U13C C51U A129G,1.19
8,U46C A107G U134A,1.87
9,U29C G32A A59G A92G,0.35
10,G7A A78U U100C,0.69
11,U29C U62C U87A U91C U100A U143C,0
12,A59G U62C U109C A141G,0
13,A94G U109C U132C A141G,0.61
14,A30G A42U U81C G83A,0.89
15,A77U U81G U102A U104C A140G,1.43
16,U12C A43G U134A,0.71
17,U14C A64C A140G,0.4
18,U5A U62A A69G A107U C133A U143C,0.27
19,U13A U73C A141G,1.15
20,U9C G25C U52C A124G,1.57
21,U1C U45C G80A A129C,0.34
22,A59G U62C A64G,0.51
23,G74U U100C U104C,1.96
24,U15C A42G A69G C84U U100C,0.1

row,Variant,self-cleavage
1,U14C A24G A59U U91C U96A U109C C128G,0
2,U12C G32A U47A G82A U100C A142G,1.21
3,U13C A69G U119C,0.32
4,U9C U52C U62C,0
5,U73A A94G U96C,0.12
6,U39A U45C U62C,0.06
7,U13A U73G A107C U132C U143A,2.04
8,A2G C68U A94U A117G U119C A124G A140G,0.5
9,A79G U130C A138U,1.47
10,U1C U15C G127A U132C,0.69
11,G35A U46C A77G,1.96
12,U108C C111A A138G,1.27
13,U9C A24U U112C,1.07
14,G8A U13A U100C U104A,1.31
15,A59G A79G U85A C95U U96C,0
16,U39A C113U A121G,0.88
17,U12C U87C A107G G126A A129G,0.18
18,U47C G75C U115A,0.89
19,U23C A24G U132A U143C,0
20,U20A G40A A57U A129G,0.09
21,C3U A22G U108C,0
22,U14C G27A U29C,1.87
23,U15A U29C U91A,1.21
24,A2G G126A U130G,0.59

row,Variant,self-cleavage
1,U62C A79G G88A,0.03
2,U14C A22G U100A,0.72
3,A57G A69C U132C A138U,0
4,A22G U39A A79G,1.46
5,A2G U14C A77U U143A,0.36
6,G35A A50G A78G,0.08
7,A2G U12C A42G A121G,0
8,U15C U102C U134C U143A,0.84
9,G35A U112A G126A,1.43
10,U29C A30G U115C,1.84
11,A42G U47C A77G,0.57
12,U62C C71A U73A U87C U112C,0.03
13,U20C A43G C63U U104A,0.28
14,G10A G35A A124U,1.14
15,A79G U102C A129U A138G C146U,0.61
16,A24G U47A G126A,1.42
17,A78C G83A U108C U143C,1.84
18,A42G A43G U134C,1.72
19,G10A G86U U102A U104C U112C A141G,0.07
20,A77U A92G U104A U108C U109C,0
21,U12C U46C C56U A94G A141G,0.04
22,U45C U73A A107G U130A,1.79
23,U23A C63U A64U A65G U143A,0.04
